Consider 44 sequences from the supplement of paper PMC11417369.

± gives the standard deviation of the averaged measurements. This is one part of the list.

The test system of this assay is PfAP2-LT AP2 domain (GST-tagged). Kind of assay: gcPBM binding intensity (ln(normalized median fluorescence intensity)); higher = stronger DNA binding. The gist of the method:
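An Agilent 4 × 180k array carrying primer-extended double-stranded 36-bp intergenic genomic probes and negative controls received GST-tagged P. falciparum DNA-binding domains expressed in E. coli, about 25 μg on average, for 1 h. The binding buffer contained 1× PBS, 1% milk, 0.2 mg/ml BSA, 0.5% salmon testes DNA and 0.03% Triton X-100. Binding intensity is the top Masliner-normalised natural-log median intensity across replicate spots of either probe orientation, read after Alexa488 anti-GST antibody staining and a 488 nm scan.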
Take “ATATATTATATTGAATGTACATATATATATTATATA [XGTACX_site8445]”: the “gcPBM binding intensity (ln)” value turned out to be 8.64 ± 0.41. The figure for “CAATGTTGTACATACACACACACAAAAAAAAAATAA [CACACA_site2407]” is 9.6 ± 0.45; for “TTCAAATTTCCACATACACACCTTGTAGATCTATAT [CACACA_site6270]” it is 9.03 ± 0.48. The figure for “ATAAAAAAACACACTCGTACACACATATTTTCTTTC [XGTACX_site6565]” is 9.27 ± 0.33; for “TGCTATAATTTATATACACACAAATATATACACATA [CACACA_site9356]” it is 8.96 ± 0.4. Next, “GATAATAATAAACAACCACACACAAAAAAACAAAAA [CACACA_site9074]”: 9.54 ± 0.33. “ATATATTTAACAAGATGTACAATTTTATAAAAAATA [XGTACX_site2351]”: the “gcPBM binding intensity (ln)” value is 8.48 ± 0.46.

For “TATATATAAATATTCAGTACATAGTGCTATTAAGTG [XGTACX_site1979]”, the “gcPBM binding intensity (ln)” value was determined as 8.68 ± 0.36. Next, “CCATTATATCTAAGTACACACATTAATTTTTTTTTT [CACACA_site6115]”: 8.72 ± 0.38; “AGAAATTAATCGAGGTGTACGTACATCCAAATATAT [XGTACX_site7650]”: 9.03 ± 0.45; “TGAAAAGGAAATTGTTGTACATATGTTTCTTCCTAA [XGTACX_site3932]”: 8.56 ± 0.45. Next, “AATAGCAATTTGGGGTGTACACACACCTTATTTAAA [XGTACX_site2234]”: 8.94 ± 0.54. Turning to “TTTTTATAAAAAAATAGTACTCGTCTAATCTTATGT [XGTACX_site8532]”, the “gcPBM binding intensity (ln)” value was determined as 8.48 ± 0.5. Next, “TTATGATGGTCTTTATAAGGGCACATTAAATTCGGC [TGCATGCA_negctrl_site166]”: 8.44 ± 0.37; “AAACTATTCACTATAATACATTAGAAGTGAATAAAA [TGCATGCA_negctrl_site498]”: 8.65 ± 0.38; “GAGAAGACATTACACAGTACCCAGTAACTCTACGGA [XGTACX_site2000]”: 8.96 ± 0.47. Next, “GATTATTATGTCCATGCATGTTAATATATATTAATT [TGCATGCA_site837]”: 9.02 ± 0.4; “AAATTGGGGCTTGTTACACACTTAGTGCGAGTTCTA [CACACA_site582]”: 9.12 ± 0.23. For “TTTTAAAAAACAAACACACACGTAGAAAAAAAAAAA [CACACA_site4608]”, the “gcPBM binding intensity (ln)” value worked out at 9.04 ± 0.42.

Consider “AAAATATATATAAATGCATGCATAATGAAATATATA [TGCATGCA_site39]”, for which the “gcPBM binding intensity (ln)” value was 9.17 ± 0.28. Next, “CTGTATAAAACCAATGCATGTAAATATATTAATATA [TGCATGCA_site511]”: 8.81 ± 0.35. Next, “GAAATTTTATTTCGGCGGACAAATGTATACTTTCTT [XGTACX_site4238]”: 8.99 ± 0.31; “ACAAGGAATATAAAAAGTACATAAAATACATAAAAA [XGTACX_site1217]”: 8.95 ± 0.51. For “CCATTTACATTGTGAAGTACTAAAAAAAAATGTAGA [XGTACX_site7882]”, the “gcPBM binding intensity (ln)” value amounted to 8.59 ± 0.47. Regarding “ATAATTTGATGGTTAACACACATATATATTATATAT [CACACA_site2449]”, the “gcPBM binding intensity (ln)” value was found to be 9.17 ± 0.4.

For the sequence “TATGGATGTATTCATACATGCACACGTACATATTTA [TGCATGCA_site991]”, the “gcPBM binding intensity (ln)” value amounted to 9.05 ± 0.22. Next, “ATATAAATATAAATATATATGTATAAATATAAATAT [CACACA_negctrl_site247]”: 8.86 ± 0.45; “ATATATTATTATAACTGTACTTTTTTTGTGGTTAAT [XGTACX_site8266]”: 8.85 ± 0.42; “TATGCGTATATATAAATACACACCAAATGTTAATAT [CACACA_site1713]”: 8.91 ± 0.37. Next, “ATCATTTTTAAAGGAACACACAAAAAAAGTTATAAT [CACACA_site6761]”: 8.79 ± 0.47; “TATATATATATATATACACACAAAAAAATAAATTCT [CACACA_site98]”: 9.38 ± 0.11; “TACTTTTCATCTTCTTAACACACAAAAAAAAAAAAA [CACACA_site9290]”: 8.32 ± 0.43. Next, “ATTTATTTTAATAATTGTACATGTTATTTTATATAT [XGTACX_site2667]”: 8.84 ± 0.54; “TATAAATATAAATACACACACATATATATTATATAT [CACACA_site4496]”: 9.28 ± 0.26; “TATATATATATATGTTGTACATATTTAAATGTTTAT [XGTACX_site5437]”: 9.39 ± 0.071. As for “ACCTATTTCAAACACACACACACACTAGCAAACATA [CACACA_site4695]”, the “gcPBM binding intensity (ln)” value was 9.88 ± 0.13. On to “ATATATATATATATGTGTACATAATAACTTTGCTTA [XGTACX_site1255]”, for which the “gcPBM binding intensity (ln)” value turned out to be 9.61 ± 0.29. Next, “CTTATTTCCTTTTGTAGTACCTTATAATATATATAA [XGTACX_site8873]”: 8.65 ± 0.33; “GCATTTCTACTAAAAATACACACGATGATACAACGA [CACACA_site1756]”: 8.86 ± 0.35; “TTCTATTTGTAAAATTGTACAAAATAAATAACAAAA [XGTACX_site1007]”: 8.45 ± 0.4.

For the sequence “TAATAATAGTACTCACATCAAAGTATTATTAAAAAT [TGCATGCA_negctrl_site496]”, the “gcPBM binding intensity (ln)” value is 8.6 ± 0.48. For the sequence “GGGAAGTAGTAGTAATGTACTTATTTATTATGTGAC [XGTACX_site3985]”, the “gcPBM binding intensity (ln)” value is 8.84 ± 0.42.

Take “TTATATATTTTTTGCACACCAAAAAAGAGAATATTC [CACACA_site2730]”: the “gcPBM binding intensity (ln)” value was 8.68 ± 0.34. The figure for “AATTAAATTATAAGCACACACATATATATATATATA [CACACA_site3351]” is 9.81 ± 0.057.
